Our source for the cytotoxicity call values is the antibiotic and cytotoxicity screens of Wong et al. (2023).

Each structure is given as a SMILES string. The list shows a part of the results.

The first experiment relates to HSkMC (human skeletal muscle cells). The experiment can be described thus: cytotoxicity call (relative viability < 0.9). The conditions noted are these: 10 µM.
On to `C[C@@H]1CCCCO[C@@H](CN(C)C(=O)Nc2cccc3ccccc23)[C@H](C)CN([C@H](C)CO)C(=O)c2cc(NC(=O)C3CCCCC3)ccc2O1`, for which the cytotoxicity call is “inactive”. The same measure, in the same setting: next, `COc1cccc(C#Cc2ccc3c(c2)O[C@@H](CN(C)S(=O)(=O)c2ccccc2F)[C@@H](C)CN([C@@H](C)CO)S3(=O)=O)c1`: “inactive”; `C[C@@H]1CN([C@@H](C)CO)C(=O)c2cccc(NS(=O)(=O)c3cn(C)cn3)c2O[C@@H]1CN(C)Cc1ccccc1`: “inactive”. The same measure, in the same setting: next, `c1ccc(-c2cc(-c3ccccc3)n(-c3ccccc3)n2)cc1`: “inactive”.

As for `C=CC[C@@H](CC(=O)NCCO)C(=O)N[C@H](COC(=O)[C@H](CC=C)CC(=O)OC(C)(C)C)Cc1ccccc1`, the cytotoxicity call is “inactive”. Still for that read-out and setting: next, `NCc1nnc2n1CCCCC2`: “inactive”.

For the compound `Cc1ccc(S(=O)(=O)N2C[C@H](O)COC[C@H]3O[C@H](CC(=O)NCCN4CCCCC4)CC[C@@H]32)cc1`, the cytotoxicity call is “inactive”. The same measure, in the same setting: next, `C[C@H](CO)N1C[C@H](C)[C@@H](CN(C)S(=O)(=O)c2cn(C)cn2)OCc2cn(nn2)CCCC1=O`: “inactive”; `CC(C)(C)[S@](=O)N1Cc2cc(C(=O)N3CCc4ccccc4C3)nc(-c3cccc(-c4ccncc4)c3)c2[C@@H]1CCO`: “inactive”.

Another experiment concerns HepG2. As to the kind of experiment: cytotoxicity call (relative viability < 0.9). The conditions noted are these: 10 µM.
On to `C[C@@H]1CCCCO[C@H](CN(C)Cc2ccc(C(F)(F)F)cc2)[C@@H](C)CN([C@@H](C)CO)C(=O)c2cc(NC(=O)Nc3ccc(F)cc3)ccc2O1`, for which the cytotoxicity call was “active”. On the same count and under the same terms, next, `C[C@@H]1CN([C@H](C)CO)C(=O)c2cccc(NC(=O)C3CCOCC3)c2O[C@@H]1CN(C)Cc1ccc(C(=O)O)cc1`: “inactive”. `C[C@H](CO)N1C[C@H](C)[C@H](CN(C)C(=O)Nc2ccc(C(F)(F)F)cc2)Oc2c(NC(=O)C3CCCCC3)cccc2C1=O`: the cytotoxicity call was “active”.

Consider `C[C@H](CO)N1C[C@H](C)[C@H](CN(C)Cc2cncnc2)Oc2cc(C3=CCCCC3)ccc2S1(=O)=O`, for which the cytotoxicity call was “inactive”. On the same count and under the same terms, next, `C[C@H]1CN([C@@H](C)CO)C(=O)c2cc(NS(=O)(=O)c3ccccc3)ccc2O[C@@H]1CN(C)Cc1ccc(Oc2ccccc2)cc1`: “inactive”; `C[C@@H]1CN([C@H](C)CO)C(=O)c2cc(NC(=O)c3ccccc3)ccc2O[C@@H](C)CCCCO[C@@H]1CN(C)S(=O)(=O)c1ccc(F)cc1`: “inactive”. Still for that read-out and setting: next, `CO[C@@H](CN(C)C(=O)c1ccc2c(c1)OCO2)[C@H](C)CN([C@@H](C)CO)S(=O)(=O)c1ccc(C)cc1`: “inactive”; `C[C@@H]1CCCCO[C@@H](CN(C)S(=O)(=O)c2ccc(F)cc2)[C@H](C)CN([C@@H](C)CO)C(=O)c2cc(NC(=O)CCC(F)(F)F)ccc2O1`: “inactive”; `Cc1noc(C)c1NC(=O)N(C)C[C@@H]1OCCCC[C@@H](C)Oc2ccc(NC(=O)c3ccccc3)cc2C(=O)N([C@H](C)CO)C[C@@H]1C`: “inactive”. Same read-out and setting: next, `C[C@@H]1CN([C@@H](C)CO)C(=O)c2cccc(NC(=O)Nc3ccc(F)cc3)c2O[C@H]1CN(C)S(=O)(=O)c1cn(C)cn1`: “inactive”; `C/C=C/c1cccc(-c2nc(C(=O)NCc3ccc(OC)cc3)cc3c2[C@@H](CCO)N([S@@](=O)C(C)(C)C)C3)c1`: “inactive”; `COc1ccccc1CN1C(=O)c2ccccc2[C@](Cc2ccccc2I)(C(=O)NC2CC2)[C@@H]1c1ccc(CO)cc1`: “active”. `CO[C@H]1CN(C)C(=O)c2ccc(NS(=O)(=O)c3ccccc3C)cc2OC[C@@H](C)N(S(C)(=O)=O)C[C@@H]1C`: the cytotoxicity call was “inactive”. With `O=c1[nH]cccc1F`, the cytotoxicity call is “inactive”. In the case of `CC1(C)OC2CC3C4CCC5=CC(=O)C=CC5(C)C4C(O)CC3(C)C2(C(=O)CO)O1` (stereo unspecified), the cytotoxicity call was “inactive”. The same measure, in the same setting: next, `CCOC(=O)[C@H]1CCCCN1`: “inactive”; `CCCC(=O)Nc1ccc2c(c1)C(=O)N(C)C[C@@H](OC)[C@H](C)CN(Cc1ccc(-c3ccccn3)cc1)[C@@H](C)CO2`: “inactive”. On the same count and under the same terms, next, `O=C1CCCN1C[C@H]1CCCNC1`: “inactive”. On the same count and under the same terms, next, `C[C@@H]1CN([C@@H](C)CO)C(=O)c2cc(NC(=O)Nc3cccc4ccccc34)ccc2O[C@@H]1CN(C)Cc1ccc(C(=O)O)cc1`: “inactive”; `COc1ccc(NC(=O)N(C)C[C@@H]2Oc3c(NC(=O)CCCCCC(=O)Nc4ccccc4N)cccc3C(=O)N([C@H](C)CO)C[C@H]2C)cc1`: “inactive”. With `Cc1noc(C)c1S(=O)(=O)Nc1ccc2c(c1)CC(=O)N([C@@H](C)CO)C[C@@H](C)[C@@H](CN(C)Cc1ccc(Oc3ccccc3)cc1)O2`, the cytotoxicity call is “active”. Consider `O=C(O)c1cn(C2CC2)c2cc(N3CCNCC3)c(F)cc2c1=O`, for which the cytotoxicity call is “inactive”.
